# According to the supplement of paper PMC8728848:
# The other results are listed elsewhere or left out.
# Experiments:
# Test in all cases: glycan array binding signal (z-score within array); higher = stronger binding
# Conditions in all cases: glycan notation: IUPAC condensed, linker removed
# [1] = target: GlcNAc(a1-6)Gal(b1-4)GlcNAc
# In short: (§1)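 Negative Z-scores can be read as non-binding. The Z-score is calculated within each array and then averaged across arrays of one protein sequence at different concentrations or buffers and across linkers. Arrays, 3228 in all, were curated from the Consortium for Functional Glycomics database and kept only where the protein sequence was available.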
# [2] = target: GlcNAc(b1-2)Gal(b1-3)GalNAc
# In short: as §1
# [3] = target: GlcNAc(b1-2)Man(a1-3)[GlcNAc(b1-2)Man(a1-6)]Man(b1-4)GlcNAc(b1-4)GlcNAc
# In short: as §1
# [4] = target: GlcNAc(b1-2)Man(a1-3)[GlcNAc(b1-2)Man(a1-6)]Man(b1-4)GlcNAc(b1-4)[Fuc(a1-6)]GlcNAc
# In short: as §1
# [5] = target: GlcNAc(b1-2)Man(a1-3)[GlcNAc(b1-4)][GlcNAc(b1-2)Man(a1-6)]Man(b1-4)GlcNAc(b1-4)GlcNAc
# In short: as §1
# [6] = target: GlcNAc(b1-2)Man(a1-3)[GlcNAc(b1-4)][GlcNAc(b1-2)Man(a1-6)]Man(b1-4)GlcNAc(b1-4)[Fuc(a1-6)]GlcNAc
# In short: as §1
# [7] = target: GlcNAc(b1-2)[GlcNAc(b1-4)]Man(a1-3)[GlcNAc(b1-2)Man(a1-6)]Man(b1-4)GlcNAc(b1-4)GlcNAc
# In short: as §1
# [8] = target: GlcNAc(b1-2)[GlcNAc(b1-4)]Man(a1-3)[GlcNAc(b1-4)][GlcNAc(b1-2)Man(a1-6)]Man(b1-4)GlcNAc(b1-4)GlcNAc
# In short: as §1
# [9] = target: GlcNAc(b1-2)[GlcNAc(b1-4)]Man(a1-3)[GlcNAc(b1-4)][GlcNAc(b1-2)[GlcNAc(b1-6)]Man(a1-6)]Man(b1-4)GlcNAc(b1-4)GlcNAc
# In short: as §1
# [10] = target: GlcNAc(b1-2)[GlcNAc(b1-4)]Man(a1-3)[GlcNAc(b1-4)][GlcNAc(b1-2)[GlcNAc(b1-6)]Man(a1-6)]Man(b1-4)GlcNAc(b1-4)[Fuc(a1-6)]GlcNAc
# In short: as §1
# [11] = target: GlcNAc(b1-2)[GlcNAc(b1-6)]Man(a1-6)[GlcNAc(b1-2)Man(a1-3)]Man(b1-4)GlcNAc(b1-4)GlcNAc
# In short: as §1
# [12] = target: GlcNAc(b1-2)[GlcNAc(b1-6)]Man(a1-6)[GlcNAc(b1-2)Man(a1-3)]Man(b1-4)GlcNAc(b1-4)[Fuc(a1-6)]GlcNAc
# In short: as §1
# [13] = target: GlcNAc(b1-2)[GlcNAc(b1-6)]Man(a1-6)[GlcNAc(b1-4)][GlcNAc(b1-2)Man(a1-3)]Man(b1-4)GlcNAc(b1-4)GlcNAc
# In short: as §1
# [14] = target: GlcNAc(b1-3)Fuc
# In short: as §1
# [15] = target: GlcNAc(b1-3)Gal
# In short: as §1
# [16] = target: GlcNAc(b1-3)Gal(b1-3)GalNAc
# In short: as §1
# [17] = target: GlcNAc(b1-3)Gal(b1-4)Glc
# In short: as §1
# [18] = target: GlcNAc(b1-3)Gal(b1-4)GlcNAc
# In short: as §1
# [19] = target: GlcNAc(b1-3)Gal(b1-4)GlcNAc(b1-2)Man(a1-3)[GlcNAc(b1-3)Gal(b1-4)GlcNAc(b1-2)Man(a1-6)]Man(b1-4)GlcNAc(b1-4)GlcNAc
# In short: as §1
# [20] = target: GlcNAc(b1-3)Gal(b1-4)GlcNAc(b1-2)Man(a1-3)[GlcNAc(b1-3)Gal(b1-4)GlcNAc(b1-2)Man(a1-6)]Man(b1-4)GlcNAc(b1-4)[Fuc(a1-6)]GlcNAc
# In short: as §1
# [21] = target: GlcNAc(b1-3)Gal(b1-4)GlcNAc(b1-2)[GlcNAc(b1-3)Gal(b1-4)GlcNAc(b1-6)]Man(a1-6)[GlcNAc(b1-3)Gal(b1-4)GlcNAc(b1-2)Man(a1-3)]Man(b1-4)GlcNAc(b1-4)GlcNAc
# In short: as §1
# [22] = target: GlcNAc(b1-3)Gal(b1-4)GlcNAc(b1-3)Gal(b1-4)GlcNAc
# In short: as §1
binder,measurement,setting,value
"HBHA-Rv (Mycobacterium tuberculosum), P0A5P6 (protein) MAENSNIDDIKAPLLAALGAADLALATVNELITNLRERAEETRTDTRSRVEESRARLTKLQEDLPEQLTELREKFTAEELRKAAEGYLEAATSRYNELVERGEAALERLRSQQSFEEVSARAEGYVDQAVELTQEALGTVASQTRAVGERAAKLVGIELPKKAAPAKKAAPAKKAAPAKKAAAKKAPAKKAAAKKVTQK",glycan array binding signal (z-score),[1],0.146
same,glycan array binding signal (z-score),[2],0.487
same,glycan array binding signal (z-score),[3],0.065
same,glycan array binding signal (z-score),[4],-0.409
same,glycan array binding signal (z-score),[5],-0.445
same,glycan array binding signal (z-score),[6],-0.439
same,glycan array binding signal (z-score),[7],-0.395
same,glycan array binding signal (z-score),[8],-0.019
same,glycan array binding signal (z-score),[9],-0.437
same,glycan array binding signal (z-score),[10],-0.43
same,glycan array binding signal (z-score),[11],-0.469
same,glycan array binding signal (z-score),[12],-0.218
same,glycan array binding signal (z-score),[13],-0.415
same,glycan array binding signal (z-score),[14],-0.354
same,glycan array binding signal (z-score),[15],0.32
same,glycan array binding signal (z-score),[16],-0.348
same,glycan array binding signal (z-score),[17],0.832
same,glycan array binding signal (z-score),[18],-0.063
same,glycan array binding signal (z-score),[19],-0.423
same,glycan array binding signal (z-score),[20],-0.332
same,glycan array binding signal (z-score),[21],-0.106
same,glycan array binding signal (z-score),[22],-0.34
